In PubChem BioAssay AID588855 (National Center for Advancing Translational Sciences (NCATS), 2011):
The campaign covered roughly 410,000 compounds. About 5,000 (1.2%) were called active. The shares of active, inactive and inconclusive entries below differ from those in the screen. Calls follow the shape of the dose curve; as a rule, active = well fitted inhibition curve with a large enough effect; inconclusive = small, poorly fitted or top-dose-only effect; inactive = no such curve, though single readings can be large or run the other way. A potency beside an inconclusive call is a rough fit, not a confirmed value.

assay: qHTS for Inhibitors of TGF-b; conditions: HepG2 CAGA-GFP TGF-b/SMAD3 reporter, GFP fluorescence, 18 h, TGF-beta stimulated, 500 pg/mL final; series mostly up to 46.1 µM; also: nearly all actives have a fitted effect of over 65% in size
Method in brief: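 TGF-beta reporter screen: HEPG2 CAGA-GFP, 1% FBS, 500 pg/mL TGF-beta final, 18 h; per-cell GFP summed per well; curves fitted and categorized by class.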
Potency is read from the fitted curve at half-maximal effect; tags tell the direction and shape of the fitted curve.

| SMILES | Potency |
| --- | --- |
| COCCN(C(=O)Cc1cccs1)C(C(=O)NCc1ccc(OC)cc1)c1ccc(C(C)C)cc1 (stereo not drawn) | inconclusive: 22.4 µM [inhibitor, single point] |
| O=C(Nc1ccc2nn(-c3ccc(Cl)cc3)nc2c1)c1cc2ccccc2o1 | inactive |
| C[N+]1=C(/C=C/Nc2ccccc2Cl)C(C)(C)c2ccccc21 | inconclusive: 5.01 µM [inhibitor, partial curve] |
| CCCCCCN1C[C@@H](O)[C@H](n2cc(C3CC3)nn2)C[C@@H]1c1ccccc1 | inconclusive: 22.4 µM [inhibitor, partial curve, poor fit] |
| CCCCCCCC[n+]1c(C)n(-c2ccccc2)c2ccc(NC(C)=O)cc21 | inconclusive: 2.51 µM [inhibitor, partial curve, poor fit] |
| CCOc1ccc(CCNC(=O)CN2CCN(Cc3ccc(F)cc3)C2=O)cc1OCC | inconclusive: 5.62 µM [inhibitor, single point] |
| CCCn1c(/C=C/c2cc[n+](C)cc2)nc2ccccc21 | inactive |
| CC(Sc1nnnn1-c1ccc(O)cc1)c1nc2ccccc2c(=O)[nH]1 (stereo not drawn) | inactive |
| COc1ccc(-c2cccc(NS(=O)(=O)c3cc(C)ccc3OC)c2)nn1 | inconclusive: 3.55 µM [inhibitor, partial curve, poor fit] |
| CC1=C(C(=O)N(C(C)C)C(C)C)CC(CC(=O)NCc2cccc3ccccc23)C(=O)N1Cc1ccc(F)cc1 (stereo not drawn) | inconclusive: 20 µM [inhibitor, partial curve, poor fit] |
| Cc1ccc(S(=O)(=O)N2CCCCC2)cc1NC(=O)CSc1ncccn1 | inactive |
| CCc1ccc(Nc2ncc3c(n2)CC(c2ccc(OC)cc2)CC3=O)cc1 (stereo not drawn) | inactive |
| Cn1cc(C(=O)c2ccc(Cl)cc2Cl)cc1C(=O)N/N=C(\N)COc1ccc(Cl)cc1 | inconclusive: 5.62 µM [inhibitor, partial curve, poor fit] |
| O=C(COC(=O)c1cc(Br)ccc1O)NNC(=O)c1cccs1 | inconclusive: 14.1 µM [inhibitor, single point] |
| Cc1ccc(C)c(Nc2nn3c(=O)c4ccc(C(=O)NCc5cccs5)cc4nc3s2)c1 | active: 5.01 µM |
| Cc1ccc(S(=O)(=O)Nc2ccc3c(c2)CC(=O)N([C@H](C)CO)C[C@H](C)[C@H](CN(C)Cc2ccc4c(c2)OCO4)O3)cc1 | inconclusive: 35.5 µM [inhibitor, single point] |
| COCC(C)NCc1ccccc1C (stereo not drawn) | inconclusive: 7.08 µM [inhibitor, full curve, poor fit] |
| COc1cccc(/C=N/Nc2ncc(C(F)(F)F)cc2Cl)c1O | inconclusive: 15.8 µM [inhibitor, partial curve, poor fit] |
